# Measured values from US20240358826A1 (ORIONIS BIOSCIENCES, published 2024).
# T1: IL-1R (IL-1 Receptor) (UniProt P14778 18-569, limits assumed)
# T1 sequence (looked up): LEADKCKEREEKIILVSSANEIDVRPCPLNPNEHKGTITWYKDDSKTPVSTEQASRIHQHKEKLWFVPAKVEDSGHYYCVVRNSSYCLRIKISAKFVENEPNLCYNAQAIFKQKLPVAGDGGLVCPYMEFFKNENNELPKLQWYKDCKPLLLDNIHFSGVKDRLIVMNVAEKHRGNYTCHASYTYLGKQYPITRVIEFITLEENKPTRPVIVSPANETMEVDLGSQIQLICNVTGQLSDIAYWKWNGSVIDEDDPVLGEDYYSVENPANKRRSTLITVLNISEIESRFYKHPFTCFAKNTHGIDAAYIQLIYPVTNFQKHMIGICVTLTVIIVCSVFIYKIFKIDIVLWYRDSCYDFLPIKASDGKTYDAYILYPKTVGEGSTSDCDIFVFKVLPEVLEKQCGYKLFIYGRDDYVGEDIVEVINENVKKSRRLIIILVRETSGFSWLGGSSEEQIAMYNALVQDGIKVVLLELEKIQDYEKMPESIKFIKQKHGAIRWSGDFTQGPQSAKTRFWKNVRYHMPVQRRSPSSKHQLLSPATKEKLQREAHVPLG
# B1: CD8 VHH_5GGS_Fc_hole + Fc-knob_20GGS_IL1α delta 1-6_N29G_C141A (Fc fusion)
# chain 1: DVQLQESGGGLVQPGGSLRLSCAASGSIFSINVMGWYRQTPGKERELVAKITNFGITSYADSAQGRFTISRGNAKNTVYLQMNSLKPEDTAVYYCNLDTTGWGPPPYQYWGQGTQVTVSSGGSGGSGGSGGSGGSDKTHTCPPCPAPEAAGGPSVFLFPPKPKDTLMISRTPEVTCVVVDVSHEDPEVKFNWYVDGVEVHNAKTKPREEQYNSTYRVVSVLTVLHQDWLNGKEYKCQVSNKALPAPIEKTISKAKGQPREPQVCTLPPSRDELTKNQVSLSCAVKGFYPSDIAVEWESNGQPENNYKTTPPVLDSDGSFFLVSKLTVDKSRWQQGNVFSCSVMHEALHNHYTQKSLSLSPGK
# chain 2: [letters of human IgG1 Fc with changes not shown]GGSGGSGGSGGSGGSGGSGGSGGSGGSGGSGGSGGSGGSGGSGGSGGSGGSGGSGGSGGSLSNVKYNFMRIIKYEFILNDALGQSIIRANDQYLTAAALHNLDEAVKFDMGAYKSSKDDAKITVILRISKTQLYVTAQDEDQPVLLKEMPEIPKTITGSETNLLFFWETHGTKNYFTSVAHPNLFIATKQDYWVALAGGPPSITDFQILENQA
# B2: CD8 VHH_5GGS_Fc_hole + Fc-knob_20GGS_IL1α delta 1-6_S31G_C141S (Fc fusion)
# chain 1: B1 chain 1
# chain 2: [letters of human IgG1 Fc with changes not shown]GGSGGSGGSGGSGGSGGSGGSGGSGGSGGSGGSGGSGGSGGSGGSGGSGGSGGSGGSGGSLSNVKYNFMRIIKYEFILNDALNQGIIRANDQYLTAAALHNLDEAVKFDMGAYKSSKDDAKITVILRISKTQLYVTAQDEDQPVLLKEMPEIPKTITGSETNLLFFWETHGTKNYFTSVAHPNLFIATKQDYWVSLAGGPPSITDFQILENQA
# B3: CD8 VHH_5GGS_Fc_hole + Fc-knob_20GGS_IL1α delta 1-6_S31A_C141A (Fc fusion)
# chain 1: B1 chain 1
# chain 2: [letters of human IgG1 Fc with changes not shown]GGSGGSGGSGGSGGSGGSGGSGGSGGSGGSGGSGGSGGSGGSGGSGGSGGSGGSGGSGGSLSNVKYNFMRIIKYEFILNDALNQAIIRANDQYLTAAALHNLDEAVKFDMGAYKSSKDDAKITVILRISKTQLYVTAQDEDQPVLLKEMPEIPKTITGSETNLLFFWETHGTKNYFTSVAHPNLFIATKQDYWVALAGGPPSITDFQILENQA
# B4: CD8 VHH_5GGS_Fc_hole + Fc-knob_20GGS_IL1α delta 1-6_N29A_C141A (Fc fusion)
# chain 1: B1 chain 1
# chain 2: [letters of human IgG1 Fc with changes not shown]GGSGGSGGSGGSGGSGGSGGSGGSGGSGGSGGSGGSGGSGGSGGSGGSGGSGGSGGSGGSLSNVKYNFMRIIKYEFILNDALAQSIIRANDQYLTAAALHNLDEAVKFDMGAYKSSKDDAKITVILRISKTQLYVTAQDEDQPVLLKEMPEIPKTITGSETNLLFFWETHGTKNYFTSVAHPNLFIATKQDYWVALAGGPPSITDFQILENQA
# B5: CD8 VHH_5GGS_Fc_hole + Fc-knob_20GGS_IL1α delta 1-6_S31A_C141S (Fc fusion)
# chain 1: B1 chain 1
# chain 2: [letters of human IgG1 Fc with changes not shown]GGSGGSGGSGGSGGSGGSGGSGGSGGSGGSGGSGGSGGSGGSGGSGGSGGSGGSGGSGGSLSNVKYNFMRIIKYEFILNDALNQAIIRANDQYLTAAALHNLDEAVKFDMGAYKSSKDDAKITVILRISKTQLYVTAQDEDQPVLLKEMPEIPKTITGSETNLLFFWETHGTKNYFTSVAHPNLFIATKQDYWVSLAGGPPSITDFQILENQA
# B6: CD8 VHH_5GGS_Fc_hole + Fc-knob_20GGS_IL1α delta 1-6_S31G_C141A (Fc fusion)
# chain 1: B1 chain 1
# chain 2: [letters of human IgG1 Fc with changes not shown]GGSGGSGGSGGSGGSGGSGGSGGSGGSGGSGGSGGSGGSGGSGGSGGSGGSGGSGGSGGSLSNVKYNFMRIIKYEFILNDALNQGIIRANDQYLTAAALHNLDEAVKFDMGAYKSSKDDAKITVILRISKTQLYVTAQDEDQPVLLKEMPEIPKTITGSETNLLFFWETHGTKNYFTSVAHPNLFIATKQDYWVALAGGPPSITDFQILENQA
# B7: CD8 VHH_5GGS_Fc_hole + Fc-knob_20GGS_IL1α delta 1-6_N29A_C141S (Fc fusion)
# chain 1: B1 chain 1
# chain 2: [letters of human IgG1 Fc with changes not shown]GGSGGSGGSGGSGGSGGSGGSGGSGGSGGSGGSGGSGGSGGSGGSGGSGGSGGSGGSGGSLSNVKYNFMRIIKYEFILNDALAQSIIRANDQYLTAAALHNLDEAVKFDMGAYKSSKDDAKITVILRISKTQLYVTAQDEDQPVLLKEMPEIPKTITGSETNLLFFWETHGTKNYFTSVAHPNLFIATKQDYWVSLAGGPPSITDFQILENQA
# B8: CD8 VHH_5GGS_Fc_hole + Fc-knob_20GGS_IL1α delta 1-6_N29G_C141S (Fc fusion)
# chain 1: B1 chain 1
# chain 2: [letters of human IgG1 Fc with changes not shown]GGSGGSGGSGGSGGSGGSGGSGGSGGSGGSGGSGGSGGSGGSGGSGGSGGSGGSGGSGGSLSNVKYNFMRIIKYEFILNDALGQSIIRANDQYLTAAALHNLDEAVKFDMGAYKSSKDDAKITVILRISKTQLYVTAQDEDQPVLLKEMPEIPKTITGSETNLLFFWETHGTKNYFTSVAHPNLFIATKQDYWVSLAGGPPSITDFQILENQA
# B9: CD8 VHH_5GGS_Fc_hole + Fc-knob_20GGS_IL1α delta 1-6_N29D_C141A (Fc fusion)
# chain 1: B1 chain 1
# chain 2: [letters of human IgG1 Fc with changes not shown]GGSGGSGGSGGSGGSGGSGGSGGSGGSGGSGGSGGSGGSGGSGGSGGSGGSGGSGGSGGSLSNVKYNFMRIIKYEFILNDALDQSIIRANDQYLTAAALHNLDEAVKFDMGAYKSSKDDAKITVILRISKTQLYVTAQDEDQPVLLKEMPEIPKTITGSETNLLFFWETHGTKNYFTSVAHPNLFIATKQDYWVALAGGPPSITDFQILENQA
# B10: CD8 VHH_5GGS_Fc_hole + Fc-knob_20GGS_IL1α delta 1-6_N29D_C141S (Fc fusion)
# chain 1: B1 chain 1
# chain 2: [letters of human IgG1 Fc with changes not shown]GGSGGSGGSGGSGGSGGSGGSGGSGGSGGSGGSGGSGGSGGSGGSGGSGGSGGSGGSGGSLSNVKYNFMRIIKYEFILNDALDQSIIRANDQYLTAAALHNLDEAVKFDMGAYKSSKDDAKITVILRISKTQLYVTAQDEDQPVLLKEMPEIPKTITGSETNLLFFWETHGTKNYFTSVAHPNLFIATKQDYWVSLAGGPPSITDFQILENQA
# Target: T1, IL-1R (IL-1 Receptor)
# Assay: cell-based or functional assay
row,"EC50 mock transfected (NF-KB reporter, HEK293T)",Binder
1,29.7 ng/mL,B1
2,20.6 ng/mL,B2
3,29.5 ng/mL,B3
4,> 1000 ng/mL,B4
5,50.5 ng/mL,B5
6,44.6 ng/mL,B6
7,0.24 ng/mL,B7
8,2.61 ng/mL,B8
9,3120 ng/mL,B9
10,715 ng/mL,B10

# Target: human CD8 alpha (human, UniProt P01732 22-235)
# UniProt P01732, sequence (P01732 22-235): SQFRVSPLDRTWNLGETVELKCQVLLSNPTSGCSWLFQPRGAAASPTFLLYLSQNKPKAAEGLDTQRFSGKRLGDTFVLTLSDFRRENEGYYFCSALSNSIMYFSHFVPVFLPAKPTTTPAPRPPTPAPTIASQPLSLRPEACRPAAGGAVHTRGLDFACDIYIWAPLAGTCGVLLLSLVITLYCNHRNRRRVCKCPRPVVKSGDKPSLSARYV
# Assay: cell-based or functional assay
"EC50 CD8 transfected (NF-KB reporter, HEK293T)",Ratio (EC50 mock / CD8 transfected),Ratio (estimated targeting window),Binder
0.097 ng/mL,306,–,B1
0.0003 ng/mL,68700,–,B2
1.9e-07 ng/mL,1.5e+08,–,B3
6.64 ng/mL,–,> 1000,B4
1.3e-06 ng/mL,3.8e+07,–,B5
8.7e-08 ng/mL,5.1e+08,–,B6
6e-10 ng/mL,4e+08,–,B7
2.8e-07 ng/mL,9.3e+06,–,B8
0.65 ng/mL,4810,–,B9
0.027 ng/mL,26500,–,B10
